About 2,200 (0.71%) of roughly 310,000 compounds showed an effect of 50% or more. The effect is printed as a negative number. This is one part of the list.
The compounds below were run against human ether-à-go-go-related gene (hERG) potassium channel (human, UniProt Q12809) (assay: primary screen, population patch clamp on CHO cells stably expressing hERG).
human ether-à-go-go-related gene (hERG) potassium channel, sequence (Q12809 whole entry, looked up): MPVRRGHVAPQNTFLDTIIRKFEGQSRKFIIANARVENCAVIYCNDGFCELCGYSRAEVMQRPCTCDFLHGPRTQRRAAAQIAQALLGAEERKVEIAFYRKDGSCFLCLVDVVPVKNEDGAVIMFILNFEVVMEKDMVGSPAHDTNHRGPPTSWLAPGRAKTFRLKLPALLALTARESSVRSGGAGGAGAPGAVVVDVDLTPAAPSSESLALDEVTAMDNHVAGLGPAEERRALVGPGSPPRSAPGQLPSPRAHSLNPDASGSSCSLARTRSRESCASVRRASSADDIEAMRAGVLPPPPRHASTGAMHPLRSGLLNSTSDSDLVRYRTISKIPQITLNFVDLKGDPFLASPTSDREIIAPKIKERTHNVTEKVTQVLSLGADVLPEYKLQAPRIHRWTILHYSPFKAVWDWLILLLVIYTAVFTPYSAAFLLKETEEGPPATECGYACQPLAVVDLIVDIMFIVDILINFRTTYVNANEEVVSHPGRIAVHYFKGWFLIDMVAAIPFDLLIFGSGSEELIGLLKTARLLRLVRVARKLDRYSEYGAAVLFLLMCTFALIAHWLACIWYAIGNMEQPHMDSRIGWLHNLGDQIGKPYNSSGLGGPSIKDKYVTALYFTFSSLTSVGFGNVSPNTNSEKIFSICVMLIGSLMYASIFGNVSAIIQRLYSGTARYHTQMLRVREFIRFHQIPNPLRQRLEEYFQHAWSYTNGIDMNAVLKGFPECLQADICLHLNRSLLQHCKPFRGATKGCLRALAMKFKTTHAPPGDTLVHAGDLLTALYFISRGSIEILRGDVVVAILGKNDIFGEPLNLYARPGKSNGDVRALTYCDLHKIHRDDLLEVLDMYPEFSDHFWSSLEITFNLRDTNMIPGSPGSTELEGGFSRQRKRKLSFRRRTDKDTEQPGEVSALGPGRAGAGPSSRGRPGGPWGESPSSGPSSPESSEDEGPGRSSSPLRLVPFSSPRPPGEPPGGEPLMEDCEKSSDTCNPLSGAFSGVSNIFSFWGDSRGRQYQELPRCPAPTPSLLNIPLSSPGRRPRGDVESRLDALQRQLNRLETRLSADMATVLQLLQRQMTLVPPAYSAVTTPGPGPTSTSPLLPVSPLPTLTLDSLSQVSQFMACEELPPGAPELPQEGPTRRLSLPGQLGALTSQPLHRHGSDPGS

Compound	hERG current change (%, negative = inhibition) at 1uM
CCc1nn(C(CC)C(=O)NCCCc2ccccc2)c(=O)c2cc3occc3n12 (centres unmarked)	4.25%
O=C1NN=C(c2ccc(Cl)cc2)CC1c1cccc(Br)c1 (centres unmarked)	12%
CCCCn1nnnc1SCC(=O)Nc1ccc(N(C)C)cc1	12.1%
O=C(CNC(=O)c1ccc2c(c1)OCCO2)N/N=C/c1ccc(O)cc1O	7.74%
COc1ccc(N2CCN(C(=O)CN3C(=O)NC(c4ccc(OC)cc4)(c4ccc(OC)cc4)C3=O)CC2)cc1	5.72%
CCOC(=O)Cc1csc(NC(=O)c2cc(C)on2)n1	10.8%
COc1ccc(CCN2CC(C(=O)Nc3cc(F)ccc3F)CC2=O)cc1OC (centres unmarked)	12.4%
CN(C)C(/C=C/Nc1ccccc1F)=C(C#N)C#N	12.7%
CN1CC(C(=O)c2ccc(Cl)cc2)C(c2ccccc2F)C1 (centres unmarked)	-11.5%
CSc1nsc(SC)c1NC(=O)OCc1ccccc1	12.6%
Cc1ccc(S(=O)(=O)N2CCCC2CNC(=O)C(=O)Nc2ccc(F)cc2F)cc1 (centres unmarked)	6.03%
Cc1ccc(NC(=O)NCCCN2CCCC2=O)cc1C	18.1%
CCOC(=O)C1=C(O)C(=O)N(Cc2cccnc2)C1c1ccc(OC)cc1 (centres unmarked)	17.3%
COc1ccc(S(=O)(=O)N(C)CC(=O)NCc2ccccc2)cc1OC	18.8%
O=C(NCCC1=CCCCC1)c1cc(S(=O)(=O)N2CCOCC2)c(Cl)cc1Cl	3.7%
O=C(NCCO)c1ccc(Oc2ccc(C(F)(F)F)cc2[N+](=O)[O-])cc1	10.2%
COc1ccc(CCNC(=O)c2c(C)nn(-c3ccccc3)c2Cl)cc1OC	15.8%
CCOC(=O)c1c(NC(=O)CSC(=S)N2CCOCC2)sc(C)c1C	1.75%
Cc1ccccc1C(=O)NNC(=O)C(=O)Nc1cccc(Cl)c1C	5.31%
Cc1ccc(-c2nnc(SCC(=O)N/N=C/c3ccccc3C(=O)O)n2-c2ccc(C)cc2)cc1	10.2%
CC1(C)CC(NC(=O)CCC2CCCC2)CC(C)(C)N1	-1.96%
Nc1nnnn1/N=C/c1cc(Cl)cc(Cl)c1O	18.1%

Compound	hERG current change (%, negative = inhibition) at 1uM
Cn1c(O)c(/C=N/NC(=O)c2ccncc2)c(=O)n(C)c1=S	13.8%
COc1cccc(CN(C)CC(=O)Nc2cccc(S(N)(=O)=O)c2)c1OC	-0.0832%
O=[N+]([O-])c1ccc(N/N=C/c2ccc(OCc3cccc4ccccc34)cc2)nc1	9.93%
CC(=O)Nc1cccc(-c2nnc3n2CC(C)S3)c1 (centres unmarked)	9.88%
N#C/C(=C\C1=C(N2CCOCC2)C(=C/c2cccc([N+](=O)[O-])c2)/CC1)C(=O)Nc1ccccc1F	12.2%
CC(NC(=O)COC(=O)c1ccc(CO)cc1)C1CC2CCC1C2 (centres unmarked)	12.8%
Cc1nnc(SCCn2c(N3CCN(Cc4ccccc4)CC3)nc3c2c(=O)[nH]c(=O)n3C)s1	-17.3%
Cc1cc(C)c(NC(=O)C2CCCN2CCOC(=O)c2ccccc2)c(C)c1.Cl (centres unmarked)	12.1%
Cc1c(Br)c([N+](=O)[O-])nn1CC(=O)NCc1ccco1	3.93%
CCOC(=O)N1CCN(CC(O)COc2c(C)cc(C)cc2C)CC1.Cl (centres unmarked)	3.11%
C#Cc1ccc([C@H]2C=C(C(=O)N3CCOCC3)O[C@@H](OCc3ccc(CO)cc3)C2)cc1	7.9%
COc1ccc(CC(=O)N2CCNC2=O)cc1	-5.51%
CCOc1ccc(/C=C/C(O)=C2/C(=O)NC3(C)CC2c2ccccc2O3)cc1OC (centres unmarked)	6.96%
CC(=O)c1cccc(Nc2nc(-c3sc(N)nc3C)cs2)c1	10.8%
CCOC(=O)C1=C(C)NC(=S)NC1c1ccsc1 (centres unmarked)	4.51%
CN(C)c1nc(Nc2ccccc2)nc(Oc2ccc(=O)[nH]n2)n1	20.5%
CCOc1cc(CNCc2cccs2)cc(Br)c1OC.Cl	5.38%
CN(NC(=O)c1ccccc1)c1ncc(C(F)(F)F)cc1Cl	15.6%
Cc1ccccc1Cn1c(C)nc2ccc([N+](=O)[O-])cc2c1=O	14.2%
CCC(C)(C)NC(=O)C(c1ccc(C)cc1)N(CCN1CCOCC1)C(=O)CNC(=O)c1cccs1 (centres unmarked)	12.4%
Cc1cc(C(c2ccc(C)o2)c2ccc(C)o2)c(O)c([N+](=O)[O-])c1	8.53%
COCCN(C(=O)CCSc1ccc(F)cc1)c1c(N)n(Cc2ccccc2)c(=O)[nH]c1=O	-0.304%

From paper PMC4336329 (PLoS ONE, 2015)
